From PubChem BioAssay AID881 (National Center for Advancing Translational Sciences (NCATS), 2007)
Out of some 110,000 compounds screened, about 610 (0.55%) were called active. Inconclusive means that the source gave no clear call. Such entries were picked first, then a sample of the others. The call rests on the fitted dose curve; in most records, active means well fitted inhibition curve with a large enough effect; inconclusive means small, poorly fitted or top-dose-only effect; inactive means no such curve, though single readings can be large or run the other way. Where the call is inconclusive, the potency comes from a doubtful curve fit.

What follows are compounds tested against Polyunsaturated fatty acid lipoxygenase ALOX15B (Homo sapiens) (UniProt O15296) (assay: qHTS Assay for Inhibitors of 15-hLO-2 (15-human lipoxygenase 2)). Details: purified 15hLO-2, xylenol orange hydroperoxide absorbance; activity change, negative = inhibition: at 57.1 µM (top of the series) unless noted.
Procedure, shortened: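 Purified human 15hLO-2 (50 nM final) preincubated with compounds 15 min at room temperature in 25 mM Hepes pH 7.5, 0.01% Triton X-100, then 45 uM arachidonic acid added for 90 min; hydroperoxide detected via ferrous/xylenol orange, 573/405 nm absorbance ratio.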
Further: nearly all actives have a fitted effect of over 60% in size.
On the % scale 0 is the no-effect control and ±100 the full control effect; potency means the concentration at half of the fitted maximal effect; tags describe the fitted curve by direction and shape.

UniProt O15296, sequence (O15296 whole entry, looked up): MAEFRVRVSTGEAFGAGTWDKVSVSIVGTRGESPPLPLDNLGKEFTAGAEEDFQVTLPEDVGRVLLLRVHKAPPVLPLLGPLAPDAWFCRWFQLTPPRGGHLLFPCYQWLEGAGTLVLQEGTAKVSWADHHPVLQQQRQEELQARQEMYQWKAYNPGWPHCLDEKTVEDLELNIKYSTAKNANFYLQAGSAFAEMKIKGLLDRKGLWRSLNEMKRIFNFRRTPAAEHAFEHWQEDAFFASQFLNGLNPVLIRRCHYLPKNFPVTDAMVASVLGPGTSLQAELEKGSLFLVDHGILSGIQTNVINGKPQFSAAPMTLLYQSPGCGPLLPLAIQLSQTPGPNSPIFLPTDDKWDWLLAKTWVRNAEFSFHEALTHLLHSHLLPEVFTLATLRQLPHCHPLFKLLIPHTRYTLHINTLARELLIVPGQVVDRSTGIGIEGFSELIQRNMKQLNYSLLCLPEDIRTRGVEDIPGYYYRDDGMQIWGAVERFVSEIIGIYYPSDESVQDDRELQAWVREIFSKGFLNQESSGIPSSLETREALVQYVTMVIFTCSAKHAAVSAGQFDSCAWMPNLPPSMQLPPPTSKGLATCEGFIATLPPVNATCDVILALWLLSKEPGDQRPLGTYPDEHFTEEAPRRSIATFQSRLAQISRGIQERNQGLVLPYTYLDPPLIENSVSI

Row | SMILES | Potency | activity change, negative = inhibition
1 | CCCC(C(=O)O)N1C(=O)/C(=C2\C(=O)N(C)c3ccccc32)SC1=S (stereo not drawn) | inconclusive: 15.8 µM [inhibitor, partial curve] | 
2 | CC(OC(=O)C1=Cc2ccccc2OC1)C(=O)NC1CCCC1 (stereo not drawn) |  | inactive: 7.21% [at 11.4 µM]
3 | CC1(C)C(c2cccs2)=NC(c2ccccc2)N1O (stereo not drawn) | inconclusive: 12.6 µM [inhibitor, partial curve] | 
4 | CCN1/C(=C/C(=O)c2ccco2)Sc2ccccc21 | inconclusive: 25.1 µM [inhibitor, single point] | 
5 | CCOc1cc(C2NC(=O)N(C)C(C)=C2C(=O)OC)cc(Br)c1O (stereo not drawn) | inconclusive: 3.16 µM [inhibitor, full curve, poor fit] | 
6 | Cc1ccc(C(=O)CSC2=NC(N)=C(C#N)C3(CCCCC3)C2C(N)=O)cc1 (stereo not drawn) | inconclusive: 31.6 µM [inhibitor, single point] | 
7 | N#CCSc1ccsc1C(=O)Nc1ccc(F)cc1 | inconclusive: 39.8 µM [inhibitor, single point] | 
8 | Cc1ccc(S(=O)(=O)C(C#N)c2nc3ccccc3nc2N2CCCC2)cc1 (stereo not drawn) | inconclusive: 7.94 µM [inhibitor, partial curve] | 
9 | CC(C)Oc1ccc(CNC(=S)N/N=C/c2ccc([N+](=O)[O-])cc2)cc1 | inconclusive: 7.94 µM [inhibitor, partial curve] | 
10 | CCN(CC)c1nc(N)c2c(N)n(-c3ccccc3C)c(=S)c(C#N)c2c1C#N | inconclusive: 15.8 µM [inhibitor, partial curve] | 
11 | CNc1ncncc1-c1ccccc1C(F)(F)F | inconclusive: 31.6 µM [inhibitor, single point] | 
12 | COc1ccc(CNC(=O)CN(C(=O)CCC(=O)Nc2ccccn2)c2ccccc2OC)cc1 |  | inactive: 4.02%
13 | Cc1ccc(S(=O)(=O)Oc2ccc(/C=C3\N=C(c4cccc(C)c4)OC3=O)cc2)cc1 | inconclusive: 31.6 µM [inhibitor, single point] | 
14 | CCN(CC)c1ccc(NC(=O)c2cccc(C)c2OC)c(C)c1 | inconclusive: 25.1 µM [inhibitor, single point] | 
15 | Cc1ccc(S(=O)(=O)Nc2ccccc2-c2ccccc2NS(=O)(=O)c2ccc(C)cc2)cc1 | inconclusive: 31.6 µM [inhibitor, single point] | 
16 | CN1OC2C(=O)N(c3ccccc3)C(=O)C2C1c1ccc(F)cc1 (stereo not drawn) |  | inactive: -0.526%
17 | O=C(NNS(=O)(=O)c1ccccc1)C1CCN(S(=O)(=O)c2ccccc2)CC1 | inconclusive: 15.8 µM [inhibitor, partial curve] | 
18 | CCc1ccc(-c2csc3[n+]2CCN3C(C)=O)cc1 | inconclusive: 15.8 µM [inhibitor, partial curve] | 
19 | CCOc1cc(CNc2ccc(O)cc2)ccc1OCc1ccc(Cl)cc1Cl |  | inconclusive: -38.4% [inhibitor] [at 11.4 µM]
20 | CCOC(=O)C1Cn2c(nc3c(c2=O)C(C)(C)Cc2ccccc2-3)S1 (stereo not drawn) |  | inactive: -12.2%
21 | COc1cccc(Nc2nnc(SCc3cc([N+](=O)[O-])cc4c3OCOC4)s2)c1 |  | inactive: -14.1%
22 | Cc1cc(Br)cc(C)c1NC(=S)NC(=O)CC(C)C | inconclusive: 12.6 µM [inhibitor, partial curve] | 
23 | COc1ccc(NC(=O)c2ccc(CNc3c(NC4CCCCC4)c(=O)c3=O)cc2)c(OC)c1 | inconclusive: 25.1 µM [inhibitor, partial curve] | 

Row | SMILES | Potency | activity change, negative = inhibition
24 | COc1ccc(OC)c(N(CC(=O)Nc2cccnc2)S(=O)(=O)c2ccc(C)cc2)c1 |  | inactive: -2.7%
25 | CCCCCCCCCCCCCCC(C(=O)O)C(O)(CC(=O)OC)C(=O)O (stereo not drawn) | inconclusive: 15.8 µM [inhibitor, partial curve] | 
26 | O=C1OC(c2cccs2)=N/C1=C\c1ccc(-c2ccccc2Cl)o1 | inconclusive: 31.6 µM [inhibitor, single point] | 
27 | CC(C)C1Cc2c(C#N)c(N)sc(=S)c2CO1 (stereo not drawn) | inconclusive: 15.8 µM [inhibitor, partial curve] | 
28 | COc1ccc2[nH]c(=O)c(CN(Cc3nnnn3Cc3ccco3)C3CCCCC3)cc2c1 | inconclusive: 7.94 µM [inhibitor, partial curve] | 
29 | CCOC(=O)c1c(NC(=O)c2cccs2)sc2c1CCN(C(=O)OCC)C2 | inconclusive: 39.8 µM [inhibitor, single point] | 
30 | CN1C(=O)/C(=C2\SC(=S)N(C(CCC(=O)O)C(=O)O)C2=O)c2ccccc21 (stereo not drawn) | inconclusive: 25.1 µM [inhibitor, single point] | 
31 | S=C(Nc1ccccc1)Nc1cc(Cl)ccc1Oc1ccccc1 | inconclusive: 25.1 µM [inhibitor, single point] | 
32 | O=C(Nc1ccc(N2CCN(C(=O)c3ccco3)CC2)c(Cl)c1)c1c(F)c(F)c(F)c(F)c1F |  | inactive: -1.76% [at 2.29 µM]
33 | C[C@@H]1CC2C3CCC4=CC(=O)C=CC4(C)[C@@]3(F)[C@@H](O)CC2(C)[C@@]1(O)C(=O)CO (stereo partly drawn) |  | inactive: -3.81% [at 0.0915 µM]
34 | O=C(NCc1ccccc1)c1c[nH]c2ccc(S(=O)(=O)Nc3ccc4c(c3)OCCO4)cc2c1=O | inconclusive: 20 µM [inhibitor, partial curve] | 
35 | CC(C)CNc1nc(=S)nc(N(C)C)[nH]1 | inconclusive: 25.1 µM [inhibitor, partial curve] | 
36 | CC1CCN(CCCCOc2ccccc2[N+](=O)[O-])CC1 |  | inactive: -9.81%
37 | Cc1cc(O)c(/C=N/Nc2cccc(Cl)c2)c(=O)o1 | inconclusive: 5.01 µM [inhibitor, partial curve] | 
38 | CCCOc1ccc(N2C(=O)CC(N(O)c3ccccc3)C2=O)cc1 (stereo not drawn) | inconclusive: 10 µM [inhibitor, partial curve] | 
39 | CCCOc1ccc(-c2nc(=S)[nH][nH]2)cc1 | inconclusive: 15.8 µM [inhibitor, partial curve] | 
40 | Cc1ccc(C2C(C#N)=C(N)SC(N)=C2C#N)cc1 | inconclusive: 15.8 µM [inhibitor, partial curve] | 
41 | O=C(NCCN1CCCCC1)c1ccc2c(c1)OCCO2 |  | inactive: -2.48%
42 | COc1ccc(-n2c(C)cc(C=O)c2C)cc1Cl |  | inactive: -4.91%
43 | CC(=O)c1ccc(N2CCN(C(=O)c3ccc(Br)cc3)CC2)c(F)c1 |  | inactive: -8.52%
44 | CCNc1ncc2nc(C)c(=O)n(Cc3cccc(OC)c3)c2n1 |  | inactive: -3.47%
45 | Cn1ncc(Cl)c1C(=O)NC(=S)Nc1sc2c(c1C#N)CCCCC2 | inconclusive: 12.6 µM [inhibitor, partial curve] | 
46 | CC1=NN(C(=O)c2ccncc2)C(=O)[C@@H]1N=Nc1ccc2ccccc2c1 |  | inactive: -10.9% [at 11.4 µM]

Row | SMILES | Potency | activity change, negative = inhibition
47 | O=C(NCc1ccco1)c1ccc2nc3sc4c(c3c(=O)n2c1)CCCC4 | inconclusive: 15.8 µM [inhibitor, partial curve] | 
48 | O=S(=O)(c1ccc(-c2nnc(SCc3nnc(-c4ccccc4)o3)o2)cc1)N1CCCC1 | inconclusive: 25.1 µM [inhibitor, partial curve] | 
49 | CCOC(=O)CSc1nc2c(sc(=S)n2CCc2ccccc2)c(=O)n1Cc1ccco1 | inconclusive: 25.1 µM [inhibitor, single point] | 
50 | C[C@@]12CCC(=O)C=C1CC[C@H]1[C@H]3CC[C@](O)(C(=O)CO)[C@]3(C)CC(=O)[C@@H]12 |  | inactive: 7.98% [at 25.6 µM]
51 | Brc1ccc(C2Nc3cccc4cccc(c34)N2)o1 | inconclusive: 2 µM [inhibitor, full curve] | 
52 | CC1=CCC2C(=O)N(c3ccc(Br)cc3C)C(=O)C2C1 (stereo not drawn) |  | inactive: -0.746%
53 | CC(C)(C)NS(=O)(=O)c1ccc(NC(=O)c2cc(-c3ccccc3)nc3ccccc23)cc1 | inconclusive: 0.251 µM [inhibitor, full curve] | 
54 | O=C(NC(=S)Nc1ccc(N2CCCCC2)cc1)c1cccs1 | active: 20 µM | 
55 | CC(=O)OCCCNc1cc(Sc2nc3ccccc3s2)c2nonc2c1[N+](=O)[O-] | inconclusive: 12.6 µM [inhibitor, single point] | 
56 | CC(C)CC1CC(=O)OC1(C)C(=O)CSc1nc2ccccc2s1 (stereo not drawn) | inconclusive: 1.26 µM [inhibitor, full curve, poor fit] | 
57 | Cc1cc(C)c(C#N)c(SC(F)F)n1 | inconclusive: 0.316 µM [inhibitor, full curve, poor fit] | 
58 | NC(=O)c1ccc([N+](=O)[O-])cc1SCc1ccccc1 | inconclusive: 39.8 µM [inhibitor, single point] | 
59 | CCOc1ccccc1NC(=O)CSc1nnc(-c2ccco2)n1Cc1ccco1 |  | inactive: 0.563%
60 | CCOc1cc(/C=C2\C(=O)N(c3nc(-c4ccc(Br)cc4)cs3)N=C2c2ccccc2)ccc1O | inconclusive: 39.8 µM [inhibitor, single point] | 
61 | c1csc(C2=Nn3c(nnc3-c3ccncc3)SC2)c1 |  | inactive: -11.2%
62 | O=C(COc1ccc2ccccc2c1Br)NNC(=O)Nc1ccccc1 | inconclusive: 25.1 µM [inhibitor, single point] | 
63 | CCOc1ccc(-c2nc(C#N)c(N3CCN(Cc4ccccc4)CC3)o2)cc1 |  | inactive: 28.1%
64 | CCOC(=O)C1=C(c2ccccc2)NC(=S)NC1c1cc([N+](=O)[O-])ccc1OC (stereo not drawn) | active: 25.1 µM | 
65 | CN1C(=O)N(C)C2(c3ccccc3)Nn3c(s/c(=C/c4ccccc4F)c3=O)=NC12c1ccccc1 (stereo not drawn) |  | inactive: -4.62%
66 | COc1ccccc1CNc1ccnc(-c2ccccc2OC)n1 | inconclusive: 25.1 µM [inhibitor, single point] | 
67 | NC(=O)c1ccc[n+]([C@@H]2OC(COP(=O)([O-])OP(=O)(O)OCC3OC(n4cnc5c(N)ncnc54)C(OP(=O)(O)O)C3O)C(O)C2O)c1 (stereo partly drawn) |  | inactive: 44.5%
68 | CCN1C(=O)/C(=C\N2CCN(C)CC2)SC1=S | inconclusive: 25.1 µM [inhibitor, single point] | 
